Laboratory results taken from patent US6579896B2, “Method for treating allergies using substituted pyrazoles” (Ortho-McNeil Pharmaceutical, Inc., priority 2000, dated 2003).

Molecular target: Recombinant human cathepsin S (CatS) (Homo sapiens, UniProt P25774)
Assay: biochemical

IC50: 20 nM
SMILES: CS(=O)(=O)N1CCc2c(c(-c3ccc(C(F)(F)F)cc3)nn2CC(O)CN2CCC(c3c[nH]c4cc(N5CCOCC5)ncc34)CC2)C1 (stereo not shown) [Example 9, 1-[5-Methanesulfonyl-3-(4-trifluoromethyl-phenyl)-4,5,6,7-tetrahydro-pyrazolo[4,3-c]pyridin-1-yl]-3-[4-(6-morpholin-4-yl-1H-pyrrolo[3,2-c]pyridin-3-yl)-piperidin-1-yl]-propan-2-ol]
